Hit rate of the full screen: of about 330,000 compounds, about 300 (0.091%) were called active. This list was built around the results that the source calls inconclusive (neither active nor inactive); the mix of calls is not that of the screen. Calls follow the shape of the dose curve; as a rule, active = well fitted inhibition curve with a large enough effect; inconclusive = small, poorly fitted or top-dose-only effect, or effect the other way, or another doubt; inactive = no such curve, though single readings can be large or run the other way. No potency is given beside an inconclusive call; the fits are too rough.
The compounds below were run against Lysosomal acid glucosylceramidase (Homo sapiens) (UniProt P04062) (assay: qHTS Assay for Inhibitors and Activators of N370S glucocerebrosidase as a Potential Chaperone Treatment of Gaucher Disease). Settings: N370S GC spleen homogenate, 4MU-glucoside fluorescence; series mostly up to 59.4 µM.
Potency is read from the fitted curve at half-maximal effect.

| SMILES | Potency |
| --- | --- |
| O=c1cc(CN2CCOCC2)c2cc(Cl)c(O)cc2o1 | inconclusive [activator, partial curve] |
| Oc1ccc(Cl)cc1CNCc1ccc(F)c(F)c1 | inconclusive [inhibitor, single point] |
| O=c1n(-c2ccccc2)c(=O)n2n1CCCC2 | inactive |
| COc1cccc(NC(=O)N(CCCN2CCOCC2)C(C)c2cc3cccc(OC)c3o2)c1 (stereo unspecified) | inconclusive [inhibitor, partial curve, poor fit] |
| COc1c(C(=O)Nc2nnc(C3CC3)s2)csc1Cl | inactive |
| CCN1C=C(C(=O)OC)C(c2cccc(OC)c2OC)C(C(=O)OC)=C1 | inconclusive [activator, partial curve] |
| Cc1cc(C)c2sc(N(CCCN(C)C)C(=O)c3ccc(S(=O)(=O)N4CCCc5ccccc54)cc3)nc2c1 | inconclusive [inhibitor, partial curve] |
| O=C(c1cccc(S(=O)(=O)N2CCc3ccccc3C2)c1)N1CCN(c2ccc(O)cc2)CC1 | inconclusive [inhibitor, single point] |
| CCc1ccc(NC(=O)CSc2nc3ccccc3nc2N2CCCC2)cc1 | inconclusive [activator, partial curve] |
| CNc1ccccc1C(=O)OC(C)C(=O)Nc1ccc(S(=O)(=O)N2CCCC2)cc1 (stereo unspecified) | inconclusive [activator, partial curve] |
| CCOC(=O)c1ccc(NC(=O)c2nc[nH]c2C(=O)N[C@@H](CCCCNC(=O)OC(C)(C)C)C(=O)OC(C)(C)C)cc1 | inconclusive [activator, partial curve] |
| CCNC(=S)N(CCCN(CC)CC)Cc1cc2cc3c(cc2[nH]c1=O)OCO3 | inconclusive [activator, partial curve] |
| COc1cccc(Sc2nc(-c3ccccc3)ncc2S(C)(=O)=O)c1 | inconclusive [activator, single point] |
| CCC(C)(C)NC(=O)C(c1ccc(C)o1)N(Cc1cccs1)C(=O)Cn1nnc2ccccc21 (stereo unspecified) | inconclusive [activator, partial curve] |
| CC1(C(=O)N(CC(=O)NC2CCCC2)Cc2ccccc2)CC(=O)N=C2C=CC=CN21 (stereo unspecified) | inconclusive [activator, single point] |
| O=C(/C=C/c1cccc(Cl)c1)Nn1c(-c2cccs2)nc2ccccc2c1=O | inconclusive [activator, full curve] |
| CC(C)(C)c1ccc(Cn2cnc(-c3ccc([N+](=O)[O-])cc3)c2)cc1 | inactive |
| CCC(=O)Nc1ccc2oc(-c3ccccc3Br)nc2c1 | inconclusive [inhibitor, full curve, poor fit] |
| CN(Cc1ccccc1)C(=O)COc1ccc(N(C)S(=O)(=O)c2ccc(F)cc2)cc1 | inconclusive [inhibitor, single point] |
| CCOC(=O)c1cc(CC)sc1NC(=O)Cc1ccccc1 | inconclusive [activator, partial curve] |
| COc1ccc(/C=C(\NC(=O)c2ccccc2)C(=O)NCc2ccco2)cc1 | inactive |

| SMILES | Potency |
| --- | --- |
| CCCOc1ccc(-c2nc(C#N)c(NCCCn3ccnc3)o2)cc1 | inactive |
| O=C1/C(=C\c2cccs2)N=C(c2cccs2)N1Nc1ccccc1 | inconclusive [activator, partial curve] |
| CC(=O)c1ccc(NS(=O)(=O)c2ccc(CC(C)C)cc2)cc1 | inactive |
| CN1CCN(c2ncc3nc(-c4ccc(F)cc4)c(=O)n(Cc4cccs4)c3n2)CC1 | inconclusive [inhibitor, single point] |
| Cc1cc(/C=C2/C(=O)NN(c3ccccc3)C2=O)c(C)n1-c1ccc(O)cc1 | active: 8.91 µM |
| COC(=O)c1ccccc1NC(=O)N1CCc2ccc(NC(=O)c3ccccn3)cc2C1 | inconclusive [inhibitor, partial curve, poor fit] |
| Cc1ccc(SC[C@H](C)CN2CC[C@H](C(C)(C)C)CCC2=O)cc1 | inconclusive [activator, single point] |
| O=C1CC(c2ccc(Cl)cc2)n2nc(NS(=O)(=O)c3ccc(F)cc3)nc2N1 (stereo unspecified) | inconclusive [inhibitor, partial curve] |
| O=C(Nc1cc(Cl)cc2c1[nH]c1cnccc12)c1cccnc1 | inactive |
| COc1ccc([C@@H]2CC=C(C(=O)O)[C@H](c3ccccc3)N2S(=O)(=O)c2ccccc2C)cc1 | inconclusive [inhibitor, single point] |
| COC(=O)C(Cc1ccc(OC(=O)c2ccc(Cl)cc2)cc1)N1Cc2ccccc2C1=O (stereo unspecified) | inconclusive [activator, single point] |
| CC12CCC(C/C1=N/OC(=O)c1cccc([N+](=O)[O-])c1)C2(C)C (stereo unspecified) | inactive |
| CC(C)=CCc1c(O)c(CC=C(C)C)c2c(c1O)C(=O)CC(c1ccc(O)cc1)O2 (stereo unspecified) | inconclusive [inhibitor, single point] |
| COc1ccc(-c2cc3ncnc(Cl)c3s2)cc1 | inconclusive [activator, partial curve] |
| COc1ccc(Nc2nc(N3CCCC3)nc3ccccc23)c(OC)c1 | inconclusive [inhibitor, partial curve] |
| O=c1c(-c2cccc(F)c2)nc2cncnc2n1Cc1ccccc1 | inactive |
| CC(C)c1cccc2nc3c(c([Si](C)(C)C(C)(C)C)c12)Cn1c-3cccc1=O | inconclusive [activator, partial curve] |
| CCCCN(CC)Cc1c(O)ccc2c3c(c(=O)oc12)CCC3 | inconclusive [activator, partial curve] |
| Cc1ccc(C)c(N(C(=O)c2snc(C(N)=O)c2N)C(C(=O)NCC2CCCO2)c2ccc(C)o2)c1 (stereo unspecified) | inconclusive [activator, single point] |
| CCCCOC(=O)c1[nH]c2c(c1C)C(=O)CC(c1cc(OC)c(OC)c(OC)c1)C2 (stereo unspecified) | inconclusive [activator, partial curve] |

— PubChem BioAssay AID2101 (National Center for Advancing Translational Sciences (NCATS), 2009)
